The other results are listed elsewhere or left out. Values were computed here from the reads of four pooled replicates and scatter widely.

This is an account of results in the BET-seq Pho4 binding data (Le et al. 2018).

The target in the assay is T1, Pho4 (S. cerevisiae) (UniProt P07270).
T1 sequence: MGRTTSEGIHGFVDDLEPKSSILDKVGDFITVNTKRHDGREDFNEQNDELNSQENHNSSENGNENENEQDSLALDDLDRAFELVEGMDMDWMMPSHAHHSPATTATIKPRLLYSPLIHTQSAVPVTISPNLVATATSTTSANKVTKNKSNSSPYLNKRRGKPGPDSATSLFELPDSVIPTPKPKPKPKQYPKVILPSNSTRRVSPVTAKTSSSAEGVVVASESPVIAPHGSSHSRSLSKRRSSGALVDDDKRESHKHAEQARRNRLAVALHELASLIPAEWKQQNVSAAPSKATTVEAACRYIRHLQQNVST
Kind of assay: relative binding free energy (BET-seq); higher = weaker binding. Particulars: reference: library average.
On to TGGTACACGTGTTTCA, for which the “relative binding free energy” value is -0.08 kcal/mol.
Turning to TTTGCCACGTGGTGTT, the “relative binding free energy” value was -0.18 kcal/mol.
The figure for GCGTGCACGTGGTGTC is -0.08 kcal/mol; for GGTCACACGTGATGCG it is 0.34 kcal/mol.
Take GGTCTCACGTGAATGT: the “relative binding free energy” value amounted to 0.4 kcal/mol.
Consider ATTCGCACGTGTGGTT, for which the “relative binding free energy” value stood at 0.14 kcal/mol.
The figure for CTATACACGTGTAGTT is 0.02 kcal/mol; for TTAATCACGTGAGGGC it is 0.24 kcal/mol.
For GCGCTCACGTGTGTGT the value was 0.18 kcal/mol; for GTGTACACGTGTGACT, 0.18 kcal/mol.
Consider TATTACACGTGGGTGC, for which the “relative binding free energy” value was -0.05 kcal/mol.
Consider AGTTCCACGTGGGGCT, for which the “relative binding free energy” value is -0.05 kcal/mol.
The figure for TGGGGCACGTGTGGGG is 0.01 kcal/mol; for ACAGTCACGTGAGGTT it is 0.16 kcal/mol; for AGTATCACGTGTTTTA it is 0.12 kcal/mol.
For GGAGACACGTGGATTT the value was 0.09 kcal/mol; for ATGACCACGTGTGTGT, 0.08 kcal/mol.
On to TGGTGCACGTGCTCTG, for which the “relative binding free energy” value was -0.2 kcal/mol.
For AAGGTCACGTGGTTAC the value was 0.1 kcal/mol.
The figure for GCGTTCACGTGTAGAG is 0.34 kcal/mol.
Take TTGTACACGTGTGCTA: the “relative binding free energy” value was 0.11 kcal/mol.
The figure for CTTTTCACGTGATAGG is 0.25 kcal/mol.
The figure for GAGATCACGTGTTGGC is 0.26 kcal/mol; for GTATGCACGTGGCAGT it is -0.15 kcal/mol.
The figure for GTAGTCACGTGTTATA is 0.17 kcal/mol; for AAGGACACGTGTGTTG it is 0.07 kcal/mol; for GTTATCACGTGGGTCT it is 0.04 kcal/mol.
Take AATAACACGTGAAGTG: the “relative binding free energy” value came out at 0.32 kcal/mol.
In the case of AGGAACACGTGTGGTC, the “relative binding free energy” value is 0.11 kcal/mol.
Regarding AGTCACACGTGGCAGT, the “relative binding free energy” value worked out at 0.1 kcal/mol.
For AGTGTCACGTGGATGT, the “relative binding free energy” value amounted to 0.02 kcal/mol.
For ATACGCACGTGTAGGT the value was -0.13 kcal/mol; for CTACGCACGTGGATGT, 0.04 kcal/mol.
On to ACGAGCACGTGGTGGT, for which the “relative binding free energy” value was -0.11 kcal/mol.
The figure for GTGTCCACGTGGAGTA is 0.05 kcal/mol.
Regarding AGAAGCACGTGGGCGT, the “relative binding free energy” value is -0.22 kcal/mol.
The figure for GGAGCCACGTGGGGAC is 0.01 kcal/mol; for AGGTCCACGTGGGGGC it is -0.23 kcal/mol.
For GATAGCACGTGTCGTA the value was 0.13 kcal/mol; for TGAGTCACGTGAATAA, 0.45 kcal/mol; for CGGTGCACGTGTAGAG, 0.06 kcal/mol.
Consider GTTATCACGTGTGCAG, for which the “relative binding free energy” value came to 0.23 kcal/mol.
Consider TTATACACGTGTTTGC, for which the “relative binding free energy” value was -0.01 kcal/mol.
As for AGGATCACGTGTGCGG, the “relative binding free energy” value is 0.1 kcal/mol.
Regarding CGGTGCACGTGTGGCC, the “relative binding free energy” value was 0.09 kcal/mol.
The figure for GGTTGCACGTGCTTGG is -0.05 kcal/mol; for GAGATCACGTGGGGTT it is 0.06 kcal/mol.
On to AGAGGCACGTGGGTTC, for which the “relative binding free energy” value is -0.1 kcal/mol.
Regarding CGAGGCACGTGCGGAG, the “relative binding free energy” value was -0.14 kcal/mol.
In the case of GGCATCACGTGGCAGG, the “relative binding free energy” value turned out to be 0.16 kcal/mol.
The figure for GTTGACACGTGGTGGC is 0.09 kcal/mol; for AGGGCCACGTGGGAGG it is -0.26 kcal/mol.
Consider GAGCGCACGTGTAGGT, for which the “relative binding free energy” value was -0.13 kcal/mol.
For TTTCGCACGTGTTTGA the value was -0.04 kcal/mol; for TAGGACACGTGTGTAT, 0.15 kcal/mol.
For AAAGTCACGTGTGTTA, the “relative binding free energy” value was -0.06 kcal/mol.
TTCATCACGTGGGTCG: the “relative binding free energy” value is 0.02 kcal/mol.
With CGTGTCACGTGAACGT, the “relative binding free energy” value is 0.29 kcal/mol.
For TTCGGCACGTGAAGGT the value was 0.23 kcal/mol; for TATGACACGTGGGGGC, -0.24 kcal/mol; for TTACGCACGTGCGGGA, -0.04 kcal/mol.
With TGGTACACGTGGGTTA, the “relative binding free energy” value was -0.02 kcal/mol.
For TACGTCACGTGTATTT the value was -0.05 kcal/mol; for GTGGTCACGTGGCCGT, 0.12 kcal/mol.
Regarding TAAATCACGTGTTATA, the “relative binding free energy” value was determined as 0.11 kcal/mol.
For the sequence TTGTACACGTGAGTAT, the “relative binding free energy” value stood at 0.18 kcal/mol.
As for GTGTGCACGTGTGGGT, the “relative binding free energy” value turned out to be 0.03 kcal/mol.
For TTAAACACGTGGCTGT the value was -0.15 kcal/mol; for GTAGTCACGTGCCGTG, 0.04 kcal/mol; for TTCGTCACGTGTTGGA, 0.02 kcal/mol.
For CTGGGCACGTGGTACA the value was -0.11 kcal/mol.
For TTGGGCACGTGCAAAG the value was -0.19 kcal/mol; for TTAGTCACGTGGTAGG, 0.08 kcal/mol; for TTAGTCACGTGATTGC, 0.2 kcal/mol.
With TTGGGCACGTGTTGAC, the “relative binding free energy” value was found to be 0.12 kcal/mol.
For GTATGCACGTGTGGCG the value was 0.12 kcal/mol; for TGTGACACGTGCTAGG, -0.1 kcal/mol.
For the sequence AAGGACACGTGGGGCT, the “relative binding free energy” value was -0.11 kcal/mol.
The figure for TTTCACACGTGGGGCT is -0.06 kcal/mol; for TATAGCACGTGGCGTT it is -0.14 kcal/mol.
As to CTAGTCACGTGGGTCG, the “relative binding free energy” value was -0.04 kcal/mol.
With TGATTCACGTGTAGCT, the “relative binding free energy” value is 0.2 kcal/mol.
For TGAGACACGTGATATG the value was 0 kcal/mol.
For TGAGGCACGTGTGAAT the value was 0.09 kcal/mol; for ATAGACACGTGTAGGC, 0.11 kcal/mol.
GGTCGCACGTGTATGT: the “relative binding free energy” value is -0.07 kcal/mol.
Take ATGTTCACGTGGCTGA: the “relative binding free energy” value is 0.29 kcal/mol.
For AGAGTCACGTGGGCGT the value was -0.13 kcal/mol; for CTAGTCACGTGACGGT, 0.38 kcal/mol.
For TTCTGCACGTGGTGAA the value was -0.11 kcal/mol; for GTTTTCACGTGACTGT, 0.33 kcal/mol; for TGAATCACGTGGATGG, 0.22 kcal/mol.
For GAGGGCACGTGATTTT the value was -0.01 kcal/mol; for AAAGGCACGTGTTATA, 0 kcal/mol; for GATGCCACGTGTGTGG, 0.1 kcal/mol.
Regarding TACCTCACGTGAGGGG, the “relative binding free energy” value was 0.41 kcal/mol.
The figure for AGGTTCACGTGCTGGA is 0.21 kcal/mol.
The figure for GAGTGCACGTGAGAGT is 0.34 kcal/mol; for CATAGCACGTGGCGGG it is -0.17 kcal/mol; for GGAGGCACGTGGCGGA it is -0.23 kcal/mol.
The figure for GTGGACACGTGGGTGG is 0.06 kcal/mol.
For TCAGGCACGTGGTGTA, the “relative binding free energy” value was -0.09 kcal/mol.
Take TAGGGCACGTGCTTTT: the “relative binding free energy” value was -0.21 kcal/mol.
As to TATAACACGTGAGGTG, the “relative binding free energy” value was 0.25 kcal/mol.
The figure for TTTGTCACGTGGCTTG is 0.03 kcal/mol.
For the sequence TGTGGCACGTGTTGTT, the “relative binding free energy” value worked out at 0 kcal/mol.
ACTTGCACGTGGTAGG: the “relative binding free energy” value was -0.09 kcal/mol.
For TTAAGCACGTGAGCTG the value was 0.19 kcal/mol; for AAGAGCACGTGATGAG, 0.04 kcal/mol.
For TTGCGCACGTGGGGCT the value was -0.28 kcal/mol.
For ATTTTCACGTGTGAAT, the “relative binding free energy” value worked out at 0.29 kcal/mol.
For CGCTGCACGTGGGGCA the value was -0.12 kcal/mol.
For GGGTTCACGTGGCATA the value was 0.2 kcal/mol.
The figure for GAGGTCACGTGATCGT is 0.14 kcal/mol; for AGTGGCACGTGGTGTT it is -0.07 kcal/mol.
